Data reported in the supplement of paper PMC4967469.
By IC50 is meant the dose at which the fit gives 50% viability; a fit beyond the top or the lowest dose is shown as a bound at that dose. The AUC spans the tested range (256-fold, ending at the top dose) of the same fit; the more sensitive the line, the further below 1. For some assays here: Any top dose called inferred was derived from the fitted curves, not read from the paper.

Experiments:
Assay in all cases: Viability of human cancer cell lines after 72 h of drug (GDSC screen)
[1] = compound: COc1cc2ncnc(Nc3cc(Br)c(O)c(Br)c3)c2cc1OC [WHI-P97]; details: top dose 10.24 µM; top dose inferred
Method: (§1)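 Human cancer cell lines in 384-well plates, medium with 10% serum, drug for 72 h over a 256-fold dose range (nine 2-fold or five 4-fold steps up to the top dose). Adherent lines were fixed and stained with the nucleic acid dye Syto60, suspension lines read with resazurin; signal relative to control wells, capped at 0 and 100%. One two-parameter sigmoid per drug and line, fitted in a mixed model over all curves with the slope shared within a line.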

[2] = compound: CCC1=C[C@@H]2CN(C1)Cc1c([nH]c3ccccc13)[C@@](C(=O)OC)(c1cc3c(cc1OC)N(C)[C@H]1[C@@](O)(C(=O)OC)[C@H](OC(C)=O)[C@]4(CC)C=CCN5CC[C@]31[C@@H]54)C2 [Vinorelbine]; details: top dose 0.064 µM; top dose inferred
Method: as §1

[3] = compound: N=C(N)NC(=N)NCCc1ccccc1 [Phenformin]; details: top dose 4000 µM; top dose inferred
Method: as §1

[4] = compound: COc1cc2nccc(Oc3ccc(NC(=O)C4(C(=O)Nc5ccc(F)cc5)CC4)cc3)c2cc1OC [XL-184]; details: top dose 5.12 µM; top dose inferred
Method: as §1

[5] = compound: O=c1cc(CN2CCOCC2)occ1OCCCCCSc1ccnc2cc(C(F)(F)F)ccc12 [EHT 1864]; details: top dose 10 µM; top dose inferred
Method: as §1

[6] = compound: O=c1cc(N2CCOCC2)oc2c(-c3cccc4c3sc3ccccc34)cccc12 [NU-7441]; details: top dose 2 µM; top dose inferred
Method: as §1

[7] = compound: COc1cc2ncnc(Nc3ccc(F)c(Cl)c3)c2cc1OCCCN1CCOCC1 [Gefitinib]; details: top dose 0.5 µM
Method: as §1

[8] = compound: C=CC(=O)Nc1cc(NC(=O)c2ccc(C)c(NC(=O)c3ccno3)c2)cc(C(F)(F)F)c1 [QL-XI-92]; details: top dose 10.24 µM; top dose inferred
Method: as §1

[9] = compound: CNCc1ccc(-c2[nH]c3cc(F)cc4c3c2CCNC4=O)cc1 [AG-014699]; details: top dose 5 µM; top dose inferred
Method: as §1

Cell Line	AUC [1]	IC50 [1]	AUC [2]	IC50 [2]	AUC [3]	IC50 [3]	AUC [4]	IC50 [4]	AUC [5]	IC50 [5]	AUC [6]	IC50 [6]	AUC [7]	IC50 [7]	AUC [8]	IC50 [8]	AUC [9]	IC50 [9]
Ca-Ski (cervix, adherent)	0.95	> 10.2 µM	0.697	0.0154 µM	0.71	1060 µM	0.886	> 5.12 µM	0.983	> 10 µM	0.952	> 2 µM	0.935	> 0.5 µM	0.889	> 10.2 µM	0.972	> 5 µM
CaR-1 (large intestine, adherent)	0.962	> 10.2 µM	0.806	0.0551 µM	0.833	> 4000 µM	0.965	> 5.12 µM	0.885	> 10 µM	0.953	> 2 µM	0.941	> 0.5 µM	0.971	> 10.2 µM	0.928	> 5 µM
Capan-2 (pancreas, adherent)	0.913	> 10.2 µM	0.77	0.0296 µM	0.985	> 4000 µM	0.922	> 5.12 µM	0.976	> 10 µM	0.983	> 2 µM	0.967	> 0.5 µM	0.965	> 10.2 µM	0.985	> 5 µM
D-392MG (glioma, adherent)	0.961	> 10.2 µM	0.823	0.0576 µM	0.814	3230 µM	0.802	3.66 µM	0.93	> 10 µM	0.96	> 2 µM	0.954	> 0.5 µM	0.877	> 10.2 µM	0.947	> 5 µM
D-542MG (glioma, adherent)	0.978	> 10.2 µM	0.896	> 0.064 µM	0.723	1250 µM	0.957	> 5.12 µM	0.974	> 10 µM	0.984	> 2 µM	0.982	> 0.5 µM	0.98	> 10.2 µM	0.984	> 5 µM
DBTRG-05MG (glioma, adherent)	0.978	> 10.2 µM	0.521	0.00462 µM	0.639	648 µM	0.887	> 5.12 µM	0.962	> 10 µM	0.978	> 2 µM	0.961	> 0.5 µM	0.95	> 10.2 µM	0.955	> 5 µM
DK-MG (glioma, adherent)	0.929	> 10.2 µM	0.975	> 0.064 µM	0.75	1910 µM	0.655	1.07 µM	0.874	> 10 µM	0.948	> 2 µM	0.973	> 0.5 µM	0.913	> 10.2 µM	0.894	> 5 µM
DMS-114 (small cell lung carcinoma, adherent)	0.979	> 10.2 µM	0.927	> 0.064 µM	0.607	516 µM	0.951	> 5.12 µM	0.934	> 10 µM	0.954	> 2 µM	0.963	> 0.5 µM	0.969	> 10.2 µM	0.983	> 5 µM
DMS-273 (small cell lung carcinoma, adherent)	0.947	> 10.2 µM	0.46	0.00309 µM	0.594	460 µM	0.844	3.98 µM	0.899	> 10 µM	0.975	> 2 µM	0.96	> 0.5 µM	0.937	> 10.2 µM	0.973	> 5 µM
DOK (head and neck, adherent)	0.946	> 10.2 µM	0.845	> 0.064 µM	0.962	> 4000 µM	0.948	> 5.12 µM	0.876	> 10 µM	0.916	> 2 µM	0.513	0.0346 µM	0.976	> 10.2 µM	0.959	> 5 µM
Detroit562 (head and neck, adherent)	0.982	> 10.2 µM	0.618	0.00831 µM	0.831	2390 µM	0.975	> 5.12 µM	0.924	> 10 µM	0.973	> 2 µM	0.942	> 0.5 µM	0.988	> 10.2 µM	0.973	> 5 µM
DoTc2-4510 (cervix, adherent)	0.941	> 10.2 µM	0.501	0.00403 µM	0.37	112 µM	0.958	> 5.12 µM	0.969	> 10 µM	0.981	> 2 µM	0.925	> 0.5 µM	0.984	> 10.2 µM	0.949	> 5 µM
ECC10 (stomach, suspension)	0.984	> 10.2 µM	0.708	0.0159 µM	0.856	3450 µM	0.937	> 5.12 µM	0.842	7.48 µM	0.983	> 2 µM	0.949	> 0.5 µM	0.934	> 10.2 µM	0.933	> 5 µM
EFM-192A (breast, adherent)	0.971	> 10.2 µM	0.555	0.00576 µM	0.861	> 4000 µM	0.929	> 5.12 µM	0.952	> 10 µM	0.976	> 2 µM	0.977	> 0.5 µM	0.98	> 10.2 µM	0.986	> 5 µM
EFO-21 (ovary, adherent)	0.95	> 10.2 µM	0.74	0.0268 µM	0.839	> 4000 µM	0.936	> 5.12 µM	0.949	> 10 µM	0.98	> 2 µM	0.953	> 0.5 µM	0.961	> 10.2 µM	0.945	> 5 µM
EFO-27 (ovary, adherent)	0.83	8.81 µM	0.577	0.00687 µM	0.835	3620 µM	0.943	> 5.12 µM	0.925	> 10 µM	0.905	> 2 µM	0.817	0.374 µM	0.972	> 10.2 µM	0.969	> 5 µM
EGI-1 (biliary tract, adherent)	0.975	> 10.2 µM	0.839	> 0.064 µM	0.795	2510 µM	0.884	> 5.12 µM	0.946	> 10 µM	0.928	> 2 µM	0.96	> 0.5 µM	0.956	> 10.2 µM	0.981	> 5 µM
EN (endometrium, adherent)	0.98	> 10.2 µM	0.768	0.0304 µM	0.784	2200 µM	0.904	> 5.12 µM	0.959	> 10 µM	0.984	> 2 µM	0.984	> 0.5 µM	0.979	> 10.2 µM	0.984	> 5 µM
ESS-1 (endometrium, adherent)	0.99	> 10.2 µM	0.549	0.00536 µM	0.987	> 4000 µM	0.99	> 5.12 µM	0.987	> 10 µM	0.978	> 2 µM	0.983	> 0.5 µM	0.919	> 10.2 µM	0.936	> 5 µM
EW-7 (Ewing sarcoma, semi-adherent)	0.953	> 10.2 µM	0.737	0.0172 µM	0.396	134 µM	0.847	3.1 µM	0.985	> 10 µM	0.97	> 2 µM	0.974	> 0.5 µM	0.964	> 10.2 µM	0.983	> 5 µM
FADU (head and neck, adherent)	0.963	> 10.2 µM	0.817	0.034 µM	0.84	2620 µM	0.981	> 5.12 µM	0.966	> 10 µM	0.947	> 2 µM	0.77	0.183 µM	0.987	> 10.2 µM	0.908	> 5 µM
FTC-133 (thyroid, adherent)	0.984	> 10.2 µM	0.907	> 0.064 µM	0.926	> 4000 µM	0.986	> 5.12 µM	0.973	> 10 µM	0.926	> 2 µM	0.965	> 0.5 µM	0.982	> 10.2 µM	0.943	> 5 µM
FU97 (stomach, adherent)	0.978	> 10.2 µM	0.91	> 0.064 µM	0.725	1110 µM	0.888	> 5.12 µM	0.798	4.92 µM	0.938	> 2 µM	0.975	> 0.5 µM	0.984	> 10.2 µM	0.965	> 5 µM
FU-OV-1 (ovary, adherent)	0.915	> 10.2 µM	0.855	> 0.064 µM	0.821	3330 µM	0.883	> 5.12 µM	0.966	> 10 µM	0.958	> 2 µM	0.954	> 0.5 µM	0.982	> 10.2 µM	0.976	> 5 µM
G-361 (melanoma, adherent)	0.969	> 10.2 µM	0.506	0.00416 µM	0.36	104 µM	0.961	> 5.12 µM	0.925	> 10 µM	0.975	> 2 µM	0.988	> 0.5 µM	0.988	> 10.2 µM	0.988	> 5 µM
G-401 (kidney, adherent)	0.948	> 10.2 µM	0.567	0.00623 µM	0.316	72.2 µM	0.842	4.12 µM	0.921	> 10 µM	0.95	> 2 µM	0.983	> 0.5 µM	0.926	> 10.2 µM	0.939	> 5 µM
GMS-10 (glioma, adherent)	0.988	> 10.2 µM	0.894	> 0.064 µM	0.81	2080 µM	0.984	> 5.12 µM	0.94	> 10 µM	0.956	> 2 µM	0.984	> 0.5 µM	0.988	> 10.2 µM	0.945	> 5 µM
H4 (glioma, adherent)	0.975	> 10.2 µM	0.608		0.837	2630 µM	0.901	> 5.12 µM	0.947	> 10 µM	0.967	> 2 µM	0.985	> 0.5 µM	0.961	> 10.2 µM	0.852	3.81 µM
H513 (mesothelioma, semi-adherent)	0.968	> 10.2 µM	0.964	> 0.064 µM	0.79	2230 µM	0.985	> 5.12 µM	0.962	> 10 µM	0.981	> 2 µM	0.971	> 0.5 µM	0.986	> 10.2 µM	0.986	> 5 µM
H2369 (mesothelioma, adherent)	0.981	> 10.2 µM	0.518	0.00448 µM	0.973	> 4000 µM	0.978	> 5.12 µM	0.93	> 10 µM	0.979	> 2 µM	0.98	> 0.5 µM	0.983	> 10.2 µM	0.987	> 5 µM
